Test results as given in article PMC10704431, “A complex with poly(A)-binding protein and EWS facilitates the transcriptional function of oncogenic ETS transcription factors in prostate cells” (The Journal of Biological Chemistry, 2023).
Results are given in words; binding and its absence hold for the method and conditions named. For part of these data: In cells and extracts the contact can be indirect. Some binding calls cover weakened binding; strength is not graded here. For part of these data: Sequences can lack the tags named with a protein. Each block holds one substance with its values, some of them ahead of it.

Chains of the proteins cited; added tags and fusions are not shown.
UniProt P43268: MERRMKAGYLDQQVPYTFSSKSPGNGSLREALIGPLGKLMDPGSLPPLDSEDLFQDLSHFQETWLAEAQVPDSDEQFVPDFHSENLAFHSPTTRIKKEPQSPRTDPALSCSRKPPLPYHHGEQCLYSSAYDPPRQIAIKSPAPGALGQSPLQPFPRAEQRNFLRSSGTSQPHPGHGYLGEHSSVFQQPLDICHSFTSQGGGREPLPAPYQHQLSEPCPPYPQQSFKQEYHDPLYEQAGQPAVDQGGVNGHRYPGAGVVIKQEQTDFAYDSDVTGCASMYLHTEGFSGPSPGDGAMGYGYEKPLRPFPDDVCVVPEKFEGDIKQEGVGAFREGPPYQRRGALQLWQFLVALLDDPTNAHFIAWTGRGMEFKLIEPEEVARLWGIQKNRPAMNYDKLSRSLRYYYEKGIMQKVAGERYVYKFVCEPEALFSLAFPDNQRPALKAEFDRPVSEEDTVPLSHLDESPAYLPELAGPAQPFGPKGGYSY
UniProt P50549: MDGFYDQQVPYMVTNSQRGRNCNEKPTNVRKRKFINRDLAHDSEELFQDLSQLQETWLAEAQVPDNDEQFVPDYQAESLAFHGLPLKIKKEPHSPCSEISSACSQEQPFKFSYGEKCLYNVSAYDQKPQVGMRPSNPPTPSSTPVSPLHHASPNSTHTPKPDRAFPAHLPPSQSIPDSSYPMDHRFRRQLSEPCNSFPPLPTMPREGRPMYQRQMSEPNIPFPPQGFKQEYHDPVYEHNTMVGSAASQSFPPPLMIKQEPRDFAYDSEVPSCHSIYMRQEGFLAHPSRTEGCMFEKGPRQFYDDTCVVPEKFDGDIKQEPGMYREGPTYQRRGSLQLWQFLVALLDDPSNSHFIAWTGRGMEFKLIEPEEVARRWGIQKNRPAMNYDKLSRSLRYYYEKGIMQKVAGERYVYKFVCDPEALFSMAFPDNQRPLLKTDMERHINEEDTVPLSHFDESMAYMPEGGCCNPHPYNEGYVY
UniProt P41161: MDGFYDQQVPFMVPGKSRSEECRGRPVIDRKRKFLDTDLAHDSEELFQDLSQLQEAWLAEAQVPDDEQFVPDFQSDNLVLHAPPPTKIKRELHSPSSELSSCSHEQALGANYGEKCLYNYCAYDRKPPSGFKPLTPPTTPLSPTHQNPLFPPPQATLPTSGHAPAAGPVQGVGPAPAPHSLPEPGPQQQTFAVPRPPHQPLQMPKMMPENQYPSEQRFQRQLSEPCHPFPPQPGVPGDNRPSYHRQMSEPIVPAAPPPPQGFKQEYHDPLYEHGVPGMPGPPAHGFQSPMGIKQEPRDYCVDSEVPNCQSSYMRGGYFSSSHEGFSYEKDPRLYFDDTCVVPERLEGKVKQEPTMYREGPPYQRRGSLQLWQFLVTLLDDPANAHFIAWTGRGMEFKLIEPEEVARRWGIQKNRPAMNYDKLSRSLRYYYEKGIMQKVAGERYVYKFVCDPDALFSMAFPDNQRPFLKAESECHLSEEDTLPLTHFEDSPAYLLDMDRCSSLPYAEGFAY
UniProt P11940: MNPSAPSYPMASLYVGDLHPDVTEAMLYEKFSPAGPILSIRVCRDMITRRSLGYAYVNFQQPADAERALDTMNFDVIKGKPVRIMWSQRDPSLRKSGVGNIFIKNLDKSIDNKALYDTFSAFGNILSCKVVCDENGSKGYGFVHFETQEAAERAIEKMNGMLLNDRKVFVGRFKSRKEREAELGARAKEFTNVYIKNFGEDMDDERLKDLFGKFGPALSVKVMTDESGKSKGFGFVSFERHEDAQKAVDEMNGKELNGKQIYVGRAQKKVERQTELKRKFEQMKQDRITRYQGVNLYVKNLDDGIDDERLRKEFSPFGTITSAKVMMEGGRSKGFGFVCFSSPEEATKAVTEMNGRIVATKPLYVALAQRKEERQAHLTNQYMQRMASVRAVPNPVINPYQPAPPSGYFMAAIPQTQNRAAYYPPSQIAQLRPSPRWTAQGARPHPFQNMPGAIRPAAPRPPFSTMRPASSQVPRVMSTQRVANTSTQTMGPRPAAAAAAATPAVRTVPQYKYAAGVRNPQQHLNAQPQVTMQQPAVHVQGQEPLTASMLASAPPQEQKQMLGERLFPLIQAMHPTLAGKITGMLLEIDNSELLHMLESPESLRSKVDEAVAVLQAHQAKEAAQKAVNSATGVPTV

Legend:
[1] = biological target: T1, endogenous ERG of TMPRSS2/ERG-positive VCaP cells (human (endogenous in VCaP)) (UniProt P11308); test: co-IP; whole-cell extracts in NP-40 lysis buffer (250 mM NaCl, 1% NP-40), antibody on magnetic Dynabeads, 4 °C, 4 h; immunoblot
T1 sequence: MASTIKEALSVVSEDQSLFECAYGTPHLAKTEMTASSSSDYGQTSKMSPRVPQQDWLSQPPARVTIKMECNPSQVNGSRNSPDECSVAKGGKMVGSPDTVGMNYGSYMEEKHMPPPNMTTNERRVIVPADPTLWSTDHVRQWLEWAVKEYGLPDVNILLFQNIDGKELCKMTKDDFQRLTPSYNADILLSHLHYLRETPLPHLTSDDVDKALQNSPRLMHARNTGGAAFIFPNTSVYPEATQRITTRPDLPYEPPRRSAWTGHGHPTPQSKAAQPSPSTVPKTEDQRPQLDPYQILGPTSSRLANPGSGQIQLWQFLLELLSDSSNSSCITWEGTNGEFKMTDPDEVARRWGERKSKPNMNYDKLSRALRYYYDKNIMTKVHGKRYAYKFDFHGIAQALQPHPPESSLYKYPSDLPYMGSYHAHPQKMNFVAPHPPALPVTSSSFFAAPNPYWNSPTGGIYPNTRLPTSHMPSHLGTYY

[2] = biological target: endogenous full-length EWS of VCaP cells (human (endogenous in VCaP)) (UniProt Q01844); test: as above
[3] = biological target: FLAG-tagged ETV4 expressed in RWPE cells (UniProt P43268); test: as above
GST-EWS 1 to 355 (ntEWS) = biological target: T2, GST-EWS 1 to 355 (ntEWS) (UniProt Q01844); test: pull-down; purified GST-tagged EWS fragment on glutathione magnetic beads; purified His-tagged protein (PABPC1 or ERG) added, no third protein; immunoblot; both purified
T2 sequence: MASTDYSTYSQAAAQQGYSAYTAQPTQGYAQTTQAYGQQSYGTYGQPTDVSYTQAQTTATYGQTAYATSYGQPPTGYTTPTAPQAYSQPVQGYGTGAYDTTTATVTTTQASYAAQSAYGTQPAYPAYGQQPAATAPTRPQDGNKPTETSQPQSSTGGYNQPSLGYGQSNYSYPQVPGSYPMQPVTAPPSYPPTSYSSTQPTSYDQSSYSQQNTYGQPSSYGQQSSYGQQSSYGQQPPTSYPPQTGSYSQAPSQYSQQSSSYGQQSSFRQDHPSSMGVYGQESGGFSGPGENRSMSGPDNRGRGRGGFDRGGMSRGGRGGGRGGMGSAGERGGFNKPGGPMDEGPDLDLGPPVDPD

purified ETV1 = purified ETV1 (UniProt P50549); test: pull-down; purified His-tagged protein (ERG, other ETS factors or PABPC1) on nickel / His isolation magnetic beads; purified GST-tagged protein added; NP-40 lysis buffer (50 mM Tris-HCl pH 7.4, 250 mM NaCl, 5 mM EDTA, 50 mM NaF, 1% NP-40) with BSA, 4 °C, 2 h; immunoblot; both purified
purified ETV5 = purified ETV5 (UniProt P41161); test: as above
purified ETV4 = purified ETV4 (UniProt P43268); test: as above
purified FLI1 = biological target: T3, purified FLI1 (UniProt Q01543); test: as above
T3 sequence: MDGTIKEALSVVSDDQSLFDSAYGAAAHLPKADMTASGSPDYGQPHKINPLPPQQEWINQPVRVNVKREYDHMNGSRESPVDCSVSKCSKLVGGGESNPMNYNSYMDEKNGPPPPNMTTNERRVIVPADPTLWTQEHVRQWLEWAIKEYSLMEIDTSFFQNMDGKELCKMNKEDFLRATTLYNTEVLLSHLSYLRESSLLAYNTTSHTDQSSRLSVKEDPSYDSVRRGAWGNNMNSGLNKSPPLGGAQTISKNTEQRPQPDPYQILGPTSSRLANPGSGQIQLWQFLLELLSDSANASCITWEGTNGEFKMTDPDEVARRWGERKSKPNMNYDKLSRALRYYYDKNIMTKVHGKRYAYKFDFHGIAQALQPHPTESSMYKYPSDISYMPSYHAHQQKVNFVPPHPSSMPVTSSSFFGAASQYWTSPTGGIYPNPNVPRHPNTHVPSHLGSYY

[4] = biological target: hemagglutinin-tagged ctEWS expressed in PC3 cells (UniProt Q01844); test: co-IP; nuclear fraction of cells (modified RIPA buffer, 100 mM NaCl, 0.5% NP-40); immunoblot

binding [1]: binds
binding [2]: binds
Substance: PABPC1, endogenous in VCaP cells (from UniProt P11940 1-636)

binding [3]: binds
Substance: PABPC1, endogenous in RWPE cells (from UniProt P11940 1-636)

binding (GST-EWS 1 to 355 (ntEWS)): no binding
Substance: His-PABPC1 (from UniProt P11940 1-636)

binding (purified ETV1): no binding
binding (purified ETV5): binds
binding (purified ETV4): binds
binding (purified FLI1): no binding
Substance: GST-PABPC1 (from UniProt P11940 1-636)

binding [4]: binds
Substance: cytoplasmic poly-adenylate-binding protein 1 (PABPC1), endogenous in PC3 cells (from UniProt P11940 1-636)
